Publication PMC11714167
These are yes or no findings as the source states them, for the method shown. In cells and extracts the contact can be indirect. Some entries that bind do so weakly or less than the wild type. For some of these results: Where a sequence is shown, tags or fusion partners need not be part of it. One block for each substance: values may come before it.

By UniProt entry, the sequences of proteins in these tests, tags left out. Where a name states a change or a piece, a line headed by the entry shows the natural chain unless it says otherwise. Residues count along the entry.
UniProt P19474: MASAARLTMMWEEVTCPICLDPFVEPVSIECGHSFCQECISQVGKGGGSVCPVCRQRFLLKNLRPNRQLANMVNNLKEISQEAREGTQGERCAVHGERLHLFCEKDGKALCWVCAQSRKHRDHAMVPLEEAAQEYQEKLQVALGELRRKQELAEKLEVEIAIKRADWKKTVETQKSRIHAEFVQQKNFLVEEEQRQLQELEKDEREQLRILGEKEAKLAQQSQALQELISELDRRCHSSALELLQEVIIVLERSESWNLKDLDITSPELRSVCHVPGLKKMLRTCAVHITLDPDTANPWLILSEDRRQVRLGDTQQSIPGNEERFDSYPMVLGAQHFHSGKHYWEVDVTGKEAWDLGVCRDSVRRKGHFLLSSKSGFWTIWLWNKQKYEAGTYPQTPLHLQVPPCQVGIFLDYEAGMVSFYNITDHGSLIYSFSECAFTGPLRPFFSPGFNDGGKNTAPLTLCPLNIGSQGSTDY
UniProt P30530: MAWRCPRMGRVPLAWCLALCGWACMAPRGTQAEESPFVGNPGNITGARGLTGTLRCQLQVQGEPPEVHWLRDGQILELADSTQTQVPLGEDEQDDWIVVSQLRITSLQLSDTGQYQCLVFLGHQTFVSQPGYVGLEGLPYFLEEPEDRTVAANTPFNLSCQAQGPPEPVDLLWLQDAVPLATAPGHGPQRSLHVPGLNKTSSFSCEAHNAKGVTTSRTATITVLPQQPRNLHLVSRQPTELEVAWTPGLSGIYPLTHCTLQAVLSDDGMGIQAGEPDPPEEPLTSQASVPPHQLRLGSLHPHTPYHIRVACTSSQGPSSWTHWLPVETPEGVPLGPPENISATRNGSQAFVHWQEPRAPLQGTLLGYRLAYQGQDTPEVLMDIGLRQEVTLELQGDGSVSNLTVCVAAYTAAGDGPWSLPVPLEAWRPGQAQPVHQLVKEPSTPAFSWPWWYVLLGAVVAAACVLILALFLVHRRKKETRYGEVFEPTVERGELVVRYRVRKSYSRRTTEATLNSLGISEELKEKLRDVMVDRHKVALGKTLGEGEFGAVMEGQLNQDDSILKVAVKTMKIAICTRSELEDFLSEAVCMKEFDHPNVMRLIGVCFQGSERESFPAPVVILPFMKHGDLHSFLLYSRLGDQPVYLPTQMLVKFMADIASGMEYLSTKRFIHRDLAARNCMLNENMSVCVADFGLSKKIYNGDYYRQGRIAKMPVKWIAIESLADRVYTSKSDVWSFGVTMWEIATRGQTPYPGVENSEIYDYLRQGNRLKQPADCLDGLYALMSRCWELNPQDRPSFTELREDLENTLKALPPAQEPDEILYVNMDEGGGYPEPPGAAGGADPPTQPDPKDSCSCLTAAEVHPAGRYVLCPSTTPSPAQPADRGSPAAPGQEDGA
AXL (endogenous) (human (endogenous in 786-O, 769-P, Caki-1)): residues 26-894 of P30530
UniProt O14964: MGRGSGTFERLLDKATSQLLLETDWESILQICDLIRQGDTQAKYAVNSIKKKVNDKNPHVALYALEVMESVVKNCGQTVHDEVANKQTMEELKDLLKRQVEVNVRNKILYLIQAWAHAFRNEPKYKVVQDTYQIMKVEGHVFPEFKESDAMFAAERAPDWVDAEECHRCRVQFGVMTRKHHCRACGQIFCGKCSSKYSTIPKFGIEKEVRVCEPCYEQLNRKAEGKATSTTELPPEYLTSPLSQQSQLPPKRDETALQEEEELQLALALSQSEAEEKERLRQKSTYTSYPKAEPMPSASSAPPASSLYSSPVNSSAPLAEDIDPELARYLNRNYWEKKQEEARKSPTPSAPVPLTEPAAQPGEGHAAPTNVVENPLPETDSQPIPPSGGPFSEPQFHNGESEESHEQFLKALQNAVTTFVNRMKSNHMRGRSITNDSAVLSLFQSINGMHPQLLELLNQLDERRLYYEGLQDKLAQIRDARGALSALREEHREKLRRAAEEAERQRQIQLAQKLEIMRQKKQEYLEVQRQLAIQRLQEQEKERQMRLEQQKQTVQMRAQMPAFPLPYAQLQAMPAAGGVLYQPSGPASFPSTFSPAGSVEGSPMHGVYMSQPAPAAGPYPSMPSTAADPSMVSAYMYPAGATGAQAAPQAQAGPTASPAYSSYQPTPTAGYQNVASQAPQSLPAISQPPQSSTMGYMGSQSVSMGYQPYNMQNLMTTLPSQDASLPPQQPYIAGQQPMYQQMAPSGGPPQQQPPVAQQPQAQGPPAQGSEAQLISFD
UniProt Q9Y6K9: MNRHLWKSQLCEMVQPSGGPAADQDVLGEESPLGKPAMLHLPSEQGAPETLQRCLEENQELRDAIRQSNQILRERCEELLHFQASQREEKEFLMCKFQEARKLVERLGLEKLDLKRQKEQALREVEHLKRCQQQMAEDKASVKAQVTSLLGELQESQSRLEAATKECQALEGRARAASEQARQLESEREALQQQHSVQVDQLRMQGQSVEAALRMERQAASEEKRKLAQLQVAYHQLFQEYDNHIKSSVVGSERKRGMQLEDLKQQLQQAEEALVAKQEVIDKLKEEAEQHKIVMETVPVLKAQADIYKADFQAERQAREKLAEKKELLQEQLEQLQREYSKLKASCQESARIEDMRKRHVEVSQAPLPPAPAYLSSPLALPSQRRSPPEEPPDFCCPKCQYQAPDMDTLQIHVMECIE
UniProt Q92783: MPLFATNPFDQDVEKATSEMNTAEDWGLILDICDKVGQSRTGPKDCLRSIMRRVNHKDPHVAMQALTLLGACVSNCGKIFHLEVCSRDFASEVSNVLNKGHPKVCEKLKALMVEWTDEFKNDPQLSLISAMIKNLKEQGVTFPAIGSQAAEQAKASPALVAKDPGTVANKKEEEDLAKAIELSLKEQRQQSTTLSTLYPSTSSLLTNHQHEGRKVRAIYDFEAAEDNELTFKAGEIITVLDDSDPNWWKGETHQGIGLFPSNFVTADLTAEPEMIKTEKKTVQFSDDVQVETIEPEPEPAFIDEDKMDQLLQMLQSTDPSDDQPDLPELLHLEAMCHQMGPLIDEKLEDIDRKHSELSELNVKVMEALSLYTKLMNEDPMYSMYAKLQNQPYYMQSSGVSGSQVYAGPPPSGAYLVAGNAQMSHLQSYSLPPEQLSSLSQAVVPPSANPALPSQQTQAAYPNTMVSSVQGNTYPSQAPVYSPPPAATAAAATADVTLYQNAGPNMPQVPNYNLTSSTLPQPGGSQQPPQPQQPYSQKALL
UniProt O00463: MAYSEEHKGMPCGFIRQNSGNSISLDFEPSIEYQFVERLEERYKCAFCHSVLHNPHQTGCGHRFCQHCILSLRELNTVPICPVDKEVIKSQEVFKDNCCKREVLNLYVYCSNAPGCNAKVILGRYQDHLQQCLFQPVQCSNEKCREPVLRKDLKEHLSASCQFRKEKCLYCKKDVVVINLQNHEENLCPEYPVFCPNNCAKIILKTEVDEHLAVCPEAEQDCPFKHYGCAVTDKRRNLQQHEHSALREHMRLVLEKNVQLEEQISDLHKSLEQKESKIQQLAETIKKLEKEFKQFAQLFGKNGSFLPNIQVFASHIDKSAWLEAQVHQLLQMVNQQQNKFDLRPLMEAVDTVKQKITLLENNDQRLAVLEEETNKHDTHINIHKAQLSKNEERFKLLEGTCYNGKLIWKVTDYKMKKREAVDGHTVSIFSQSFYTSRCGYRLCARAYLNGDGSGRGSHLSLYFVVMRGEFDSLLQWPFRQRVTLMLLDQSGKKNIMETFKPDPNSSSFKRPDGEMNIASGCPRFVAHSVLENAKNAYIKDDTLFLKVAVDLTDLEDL

Legend:
GST-TRIM21 (human) = GST-TRIM21 (human) (UniProt P19474); experiment: pull-down; purified GST or GST-tagged recombinant protein bound to GST beads, incubated with KIRC (786-O) cell lysates; washed five times with GST buffer (1 mM EDTA, pH 8.0 Tris-HCl, 200 mM NaCl, 1% Triton X-100); immunoblotting; only the target purified
[1] = molecular target: T1, STAM Binding Protein Like 1 (endogenous) (human (endogenous in 786-O, 769-P, Caki-1)) (UniProt Q96FJ0); experiment: co-IP; endogenous proteins; whole-cell extracts of KIRC cell lines (786-O, 769-P, Caki-1) immunoprecipitated with specific antibody or control IgG, protein A/G beads, washed four times with lysis buffer (20 mM Tris-HCl, 125 mM NaCl, 5 mM MgCl2, 0.2 mM EDTA, 0.1% NP-40); STAMBPL1/AXL also after Gas6 (500 ng/mL, 6 h), unaffected; AXL with HRS, STAM1, STAM2 stronger with K63-ubiquitin overexpression, STAMBPL1 KD or TRIM21 overexpression
T1 sequence: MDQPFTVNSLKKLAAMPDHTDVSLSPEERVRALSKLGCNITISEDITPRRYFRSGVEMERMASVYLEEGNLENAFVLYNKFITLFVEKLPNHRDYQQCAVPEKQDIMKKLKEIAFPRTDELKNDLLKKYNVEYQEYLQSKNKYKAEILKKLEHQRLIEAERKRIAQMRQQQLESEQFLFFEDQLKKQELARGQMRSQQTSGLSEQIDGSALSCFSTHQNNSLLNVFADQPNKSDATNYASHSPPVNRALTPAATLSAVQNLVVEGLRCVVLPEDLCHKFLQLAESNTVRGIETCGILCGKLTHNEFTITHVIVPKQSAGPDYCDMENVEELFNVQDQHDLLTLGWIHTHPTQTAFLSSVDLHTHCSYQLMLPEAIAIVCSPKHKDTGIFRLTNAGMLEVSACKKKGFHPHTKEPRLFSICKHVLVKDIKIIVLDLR

[2] = molecular target: full length TRIM21 (tagged, HEK293T) (human) (UniProt P19474); experiment: co-IP; HEK293T cells co-transfected with tagged constructs (full length or deletion mutants); IP with Flag antibody and protein A/G beads; immunoblotting
[3] = molecular target: T2, STAMBPL1-USP8_dimer (human) (UniProt Q96FJ0); experiment: co-IP; AXL deletion mutants (AXL-ΔIC, AXL-ΔEC+TM) with STAMBPL1-USP8_dimer (Figure S12B) or the TRIM21 PRY-SPRY domain (Figure S16B); cells and tags not given
T2 sequence: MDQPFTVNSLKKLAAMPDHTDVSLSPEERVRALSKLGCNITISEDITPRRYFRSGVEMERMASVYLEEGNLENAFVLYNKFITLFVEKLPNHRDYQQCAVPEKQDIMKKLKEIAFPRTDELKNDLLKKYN

GST-STAMBPL1 (human) = molecular target: T3, GST-STAMBPL1 (human) (UniProt Q96FJ0); experiment: pull-down; purified GST or GST-tagged recombinant protein bound to GST beads, incubated with KIRC (786-O) cell lysates; washed five times with GST buffer (1 mM EDTA, pH 8.0 Tris-HCl, 200 mM NaCl, 1% Triton X-100); immunoblotting; only the target purified
T3 sequence: T1 sequence

[4] = molecular target: AXL (exogenous, Figure S10B) (human) (UniProt P30530); experiment: co-IP; exogenous co-IP of AXL with HRS, STAM1 and STAM2 (Figure S10B); cells and tags not given
[5] = molecular target: T4, Flag-tagged full length STAMBPL1 (HEK293T) (human) (UniProt Q96FJ0); experiment: co-IP; HEK293T cells co-transfected with tagged constructs (full length or deletion mutants); IP with Flag antibody and protein A/G beads; immunoblotting
T4 sequence: T1 sequence

[6] = molecular target: T5, STAMBPL1-ΔUJ_linker (human) (UniProt Q96FJ0); experiment: as above
T5 sequence: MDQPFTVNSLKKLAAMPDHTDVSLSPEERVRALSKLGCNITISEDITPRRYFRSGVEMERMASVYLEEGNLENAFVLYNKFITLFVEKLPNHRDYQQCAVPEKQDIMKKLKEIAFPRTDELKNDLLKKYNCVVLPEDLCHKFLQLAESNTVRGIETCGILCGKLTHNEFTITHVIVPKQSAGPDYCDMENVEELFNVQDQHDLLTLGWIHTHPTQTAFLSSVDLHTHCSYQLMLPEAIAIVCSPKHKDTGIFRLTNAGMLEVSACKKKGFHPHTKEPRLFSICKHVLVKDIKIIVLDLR

STAMBPL1-ΔJAB (human) = molecular target: T6, STAMBPL1-ΔJAB (human) (UniProt Q96FJ0); experiment: as above
T6 sequence: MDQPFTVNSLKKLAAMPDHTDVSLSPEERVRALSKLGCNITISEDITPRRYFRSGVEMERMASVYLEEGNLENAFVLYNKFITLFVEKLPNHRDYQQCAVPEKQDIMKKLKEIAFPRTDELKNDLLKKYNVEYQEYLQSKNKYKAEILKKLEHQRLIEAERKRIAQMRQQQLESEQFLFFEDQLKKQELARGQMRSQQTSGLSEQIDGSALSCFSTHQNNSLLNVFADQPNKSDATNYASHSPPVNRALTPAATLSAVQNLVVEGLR

[7] = molecular target: AXL (endogenous) (human (endogenous in 786-O, 769-P, Caki-1)) (UniProt P30530); experiment: co-IP; endogenous proteins; whole-cell extracts of KIRC cell lines (786-O, 769-P, Caki-1) immunoprecipitated with specific antibody or control IgG, protein A/G beads, washed four times with lysis buffer (20 mM Tris-HCl, 125 mM NaCl, 5 mM MgCl2, 0.2 mM EDTA, 0.1% NP-40); STAMBPL1/AXL also after Gas6 (500 ng/mL, 6 h), unaffected; AXL with HRS, STAM1, STAM2 stronger with K63-ubiquitin overexpression, STAMBPL1 KD or TRIM21 overexpression
[8] = molecular target: AXL (endogenous) (human (endogenous in 786-O, 769-P, Caki-1)) (UniProt P30530); experiment: co-IP; co-IP of AXL with NF-κB signalling proteins (Figure S24A,B) and of AKT with IKKα (Figure S24D); cells not given
[9] = molecular target: AXL (endogenous) (human (endogenous in 786-O, 769-P, Caki-1)) (UniProt P30530); experiment: co-IP; co-IP of TRIM21 with endogenous AXL in 786-O cells transfected with empty vector or Flag-tagged STAMBPL1 vector; conversely STAMBPL1 KD (Figure S18F)

binding (GST-TRIM21 (human)): binds
binding [1]: binds
Substance: AXL (endogenous) (from UniProt P30530 26-894) (receptor)

binding [2]: binds
Substance: AXL (tagged, full length, HEK293T, Figure 4G) (from UniProt P30530 26-894) (receptor)

binding [3]: no binding
Substance: AXL-ΔIC (from UniProt P30530 26-473) (domain or fragment)

binding (GST-STAMBPL1 (human)): binds
Substance: Flag-AXL (ectopic in 786-O cells) (from UniProt P30530 26-894) (receptor)

binding [4]: binds
Substance: Flag-HRS (from UniProt O14964 1-777)

binding [5]: binds
binding [6]: binds
binding (STAMBPL1-ΔJAB (human)): binds
Substance: HA-AXL (HEK293T) (from UniProt P30530 26-894) (receptor)

binding [7]: binds
Substance: HRS (endogenous) (from UniProt O14964 1-777)

binding [8]: no binding
Substance: NEMO (from UniProt Q9Y6K9 1-419)

binding [7]: binds
Substance: STAM1 (endogenous) (from UniProt Q92783 1-540)

binding [4]: binds
Substance: STAM1 (exogenous) (from UniProt Q92783 1-540)

binding [8]: no binding
Substance: TRAF5 (from UniProt O00463 1-557)

binding [7]: binds
binding [9]: binds
Substance: TRIM21 (endogenous) (from UniProt P19474 1-475) (enzyme)
